Our source for the binding values is PMC12689633.

Protein sequences, listed by entry. Tags and fused reporters are not part of them. Lines headed by an entry give the natural chain unless they say otherwise; changes in a name come on top. Chains listed by the source or under a name are the forms on record and can include a tag or linker. Residues count along the entry.
UniProt Q12888: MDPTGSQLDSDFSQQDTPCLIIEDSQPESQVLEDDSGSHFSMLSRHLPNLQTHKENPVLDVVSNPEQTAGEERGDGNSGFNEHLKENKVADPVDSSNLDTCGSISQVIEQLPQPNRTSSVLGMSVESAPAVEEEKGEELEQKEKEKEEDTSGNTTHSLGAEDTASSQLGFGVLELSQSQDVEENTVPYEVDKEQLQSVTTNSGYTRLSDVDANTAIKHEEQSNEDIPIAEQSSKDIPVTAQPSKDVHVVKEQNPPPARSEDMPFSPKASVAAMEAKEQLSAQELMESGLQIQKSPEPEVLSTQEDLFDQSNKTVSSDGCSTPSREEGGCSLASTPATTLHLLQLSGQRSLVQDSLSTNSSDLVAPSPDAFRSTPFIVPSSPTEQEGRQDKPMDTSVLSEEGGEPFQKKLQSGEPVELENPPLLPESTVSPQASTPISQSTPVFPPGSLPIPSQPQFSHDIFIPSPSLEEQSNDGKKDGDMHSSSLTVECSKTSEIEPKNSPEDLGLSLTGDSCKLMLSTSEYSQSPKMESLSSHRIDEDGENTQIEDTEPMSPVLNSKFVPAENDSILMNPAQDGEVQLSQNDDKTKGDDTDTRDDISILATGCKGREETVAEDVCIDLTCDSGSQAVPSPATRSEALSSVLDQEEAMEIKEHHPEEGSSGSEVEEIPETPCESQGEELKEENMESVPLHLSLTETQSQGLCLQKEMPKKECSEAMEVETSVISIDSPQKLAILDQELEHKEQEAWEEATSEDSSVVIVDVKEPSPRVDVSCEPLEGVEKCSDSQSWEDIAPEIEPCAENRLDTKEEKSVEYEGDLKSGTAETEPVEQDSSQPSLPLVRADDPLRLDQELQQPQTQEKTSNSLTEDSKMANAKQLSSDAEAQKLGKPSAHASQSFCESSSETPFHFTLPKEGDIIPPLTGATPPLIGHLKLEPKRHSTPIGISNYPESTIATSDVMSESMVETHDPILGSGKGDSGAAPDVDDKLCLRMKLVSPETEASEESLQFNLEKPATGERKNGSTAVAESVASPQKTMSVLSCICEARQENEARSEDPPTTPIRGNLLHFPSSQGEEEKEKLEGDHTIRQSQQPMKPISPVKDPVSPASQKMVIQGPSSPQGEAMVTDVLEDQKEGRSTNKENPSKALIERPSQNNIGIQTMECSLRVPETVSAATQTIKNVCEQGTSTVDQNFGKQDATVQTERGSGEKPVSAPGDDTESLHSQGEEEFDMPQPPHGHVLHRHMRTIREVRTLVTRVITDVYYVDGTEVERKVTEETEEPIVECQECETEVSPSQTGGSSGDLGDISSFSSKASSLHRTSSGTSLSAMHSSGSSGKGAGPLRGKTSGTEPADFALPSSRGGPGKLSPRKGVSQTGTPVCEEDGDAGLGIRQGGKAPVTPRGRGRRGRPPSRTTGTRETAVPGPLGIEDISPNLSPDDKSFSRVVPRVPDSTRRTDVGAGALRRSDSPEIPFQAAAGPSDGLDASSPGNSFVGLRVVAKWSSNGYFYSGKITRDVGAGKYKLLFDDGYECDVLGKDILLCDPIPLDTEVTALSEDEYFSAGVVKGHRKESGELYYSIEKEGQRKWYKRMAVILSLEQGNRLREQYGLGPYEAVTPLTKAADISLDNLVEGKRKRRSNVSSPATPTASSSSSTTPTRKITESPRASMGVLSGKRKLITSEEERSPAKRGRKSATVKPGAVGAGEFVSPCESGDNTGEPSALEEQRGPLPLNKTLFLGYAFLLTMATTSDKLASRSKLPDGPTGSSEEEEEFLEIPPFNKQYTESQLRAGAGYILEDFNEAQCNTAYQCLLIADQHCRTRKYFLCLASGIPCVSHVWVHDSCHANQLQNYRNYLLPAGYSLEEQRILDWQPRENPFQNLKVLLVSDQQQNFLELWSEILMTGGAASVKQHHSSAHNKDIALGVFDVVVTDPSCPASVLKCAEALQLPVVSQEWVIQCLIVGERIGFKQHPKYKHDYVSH
USP28^hIF2 N-terminal region (aa1–650) (Q96RU2, residues 1-650): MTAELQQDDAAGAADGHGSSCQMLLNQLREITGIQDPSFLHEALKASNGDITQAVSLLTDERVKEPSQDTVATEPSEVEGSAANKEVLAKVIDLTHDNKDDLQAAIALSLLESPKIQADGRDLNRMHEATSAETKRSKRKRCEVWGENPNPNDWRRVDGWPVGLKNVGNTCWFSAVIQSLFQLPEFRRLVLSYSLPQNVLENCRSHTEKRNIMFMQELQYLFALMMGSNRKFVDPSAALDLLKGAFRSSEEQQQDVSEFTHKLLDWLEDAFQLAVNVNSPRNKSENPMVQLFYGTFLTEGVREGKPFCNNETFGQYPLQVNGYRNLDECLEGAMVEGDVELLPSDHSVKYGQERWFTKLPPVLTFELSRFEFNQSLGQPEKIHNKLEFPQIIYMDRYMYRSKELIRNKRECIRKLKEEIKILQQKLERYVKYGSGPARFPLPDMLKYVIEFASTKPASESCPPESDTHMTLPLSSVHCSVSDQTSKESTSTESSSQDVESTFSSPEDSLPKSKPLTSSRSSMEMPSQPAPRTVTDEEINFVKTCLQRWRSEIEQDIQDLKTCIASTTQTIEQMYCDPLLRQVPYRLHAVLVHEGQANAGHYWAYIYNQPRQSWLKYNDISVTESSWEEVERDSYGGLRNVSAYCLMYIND
USP28^hIF2 (human isoform 2) wildtype transgene (Q96RU2-2, form named): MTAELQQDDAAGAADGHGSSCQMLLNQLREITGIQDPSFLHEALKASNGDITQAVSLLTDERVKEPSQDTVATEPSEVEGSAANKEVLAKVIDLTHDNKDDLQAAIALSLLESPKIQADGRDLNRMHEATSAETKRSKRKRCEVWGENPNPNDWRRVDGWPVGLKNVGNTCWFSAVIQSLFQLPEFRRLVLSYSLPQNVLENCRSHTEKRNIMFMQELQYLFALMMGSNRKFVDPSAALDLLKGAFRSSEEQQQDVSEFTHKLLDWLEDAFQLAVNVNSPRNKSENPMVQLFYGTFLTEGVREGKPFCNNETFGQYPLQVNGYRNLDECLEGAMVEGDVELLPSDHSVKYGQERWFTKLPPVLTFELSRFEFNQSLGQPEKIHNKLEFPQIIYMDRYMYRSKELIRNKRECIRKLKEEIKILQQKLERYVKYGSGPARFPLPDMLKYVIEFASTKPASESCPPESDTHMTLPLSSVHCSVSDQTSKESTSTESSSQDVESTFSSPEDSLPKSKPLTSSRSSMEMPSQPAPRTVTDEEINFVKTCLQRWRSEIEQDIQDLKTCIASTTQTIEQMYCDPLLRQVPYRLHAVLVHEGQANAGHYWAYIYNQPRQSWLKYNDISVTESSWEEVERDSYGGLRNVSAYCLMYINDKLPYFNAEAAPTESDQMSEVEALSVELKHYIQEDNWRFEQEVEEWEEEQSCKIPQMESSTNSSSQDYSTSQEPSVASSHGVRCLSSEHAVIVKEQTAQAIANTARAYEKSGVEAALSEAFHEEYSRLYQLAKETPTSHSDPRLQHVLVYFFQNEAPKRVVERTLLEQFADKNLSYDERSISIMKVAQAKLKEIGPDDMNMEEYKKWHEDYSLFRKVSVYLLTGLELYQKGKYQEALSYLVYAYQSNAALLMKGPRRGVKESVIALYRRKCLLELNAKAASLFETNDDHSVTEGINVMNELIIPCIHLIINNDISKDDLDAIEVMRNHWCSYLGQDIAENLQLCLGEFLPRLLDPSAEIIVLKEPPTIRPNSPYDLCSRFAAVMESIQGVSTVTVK
USP28^hIF2 C171A (Q96RU2-2, form named): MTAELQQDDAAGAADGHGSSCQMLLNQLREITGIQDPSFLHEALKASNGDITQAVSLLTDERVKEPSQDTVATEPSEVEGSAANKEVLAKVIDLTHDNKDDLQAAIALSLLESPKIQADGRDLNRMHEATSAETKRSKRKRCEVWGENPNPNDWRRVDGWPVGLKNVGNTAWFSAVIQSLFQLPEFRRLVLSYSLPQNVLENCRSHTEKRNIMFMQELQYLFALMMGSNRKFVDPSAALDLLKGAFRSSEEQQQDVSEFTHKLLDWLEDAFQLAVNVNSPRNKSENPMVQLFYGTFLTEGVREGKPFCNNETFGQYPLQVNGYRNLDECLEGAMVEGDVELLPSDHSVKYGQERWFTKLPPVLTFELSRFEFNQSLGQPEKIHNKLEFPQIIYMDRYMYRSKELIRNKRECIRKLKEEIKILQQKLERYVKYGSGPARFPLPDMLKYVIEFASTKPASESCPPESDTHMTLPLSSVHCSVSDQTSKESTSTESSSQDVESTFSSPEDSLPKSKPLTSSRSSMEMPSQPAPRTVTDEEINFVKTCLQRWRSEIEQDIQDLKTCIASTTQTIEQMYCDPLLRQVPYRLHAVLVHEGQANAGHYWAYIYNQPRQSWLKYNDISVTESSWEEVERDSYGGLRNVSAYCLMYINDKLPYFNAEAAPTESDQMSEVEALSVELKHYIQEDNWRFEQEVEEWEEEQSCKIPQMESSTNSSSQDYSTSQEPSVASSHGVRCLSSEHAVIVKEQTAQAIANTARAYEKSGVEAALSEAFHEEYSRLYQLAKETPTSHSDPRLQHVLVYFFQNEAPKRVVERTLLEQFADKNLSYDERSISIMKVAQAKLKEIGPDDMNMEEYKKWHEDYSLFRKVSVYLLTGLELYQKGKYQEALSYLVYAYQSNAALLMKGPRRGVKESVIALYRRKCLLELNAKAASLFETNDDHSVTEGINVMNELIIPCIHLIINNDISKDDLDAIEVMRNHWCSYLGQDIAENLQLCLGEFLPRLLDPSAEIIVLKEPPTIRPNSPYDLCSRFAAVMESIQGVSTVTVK
USP28^hIF2 C-terminal region alone (aa651–1045) (Q96RU2-2, form named): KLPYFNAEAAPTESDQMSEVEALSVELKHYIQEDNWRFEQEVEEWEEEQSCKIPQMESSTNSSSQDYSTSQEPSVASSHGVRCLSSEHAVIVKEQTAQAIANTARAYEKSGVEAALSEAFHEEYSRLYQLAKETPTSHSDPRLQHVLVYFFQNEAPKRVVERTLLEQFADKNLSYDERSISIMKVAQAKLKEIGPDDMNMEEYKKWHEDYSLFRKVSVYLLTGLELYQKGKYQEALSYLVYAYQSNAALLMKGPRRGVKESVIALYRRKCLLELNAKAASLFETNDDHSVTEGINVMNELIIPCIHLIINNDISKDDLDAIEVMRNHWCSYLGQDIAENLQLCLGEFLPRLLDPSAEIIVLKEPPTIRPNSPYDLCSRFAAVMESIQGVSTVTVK
USP28^hIF2 D255N P287S (Q96RU2-2, form named): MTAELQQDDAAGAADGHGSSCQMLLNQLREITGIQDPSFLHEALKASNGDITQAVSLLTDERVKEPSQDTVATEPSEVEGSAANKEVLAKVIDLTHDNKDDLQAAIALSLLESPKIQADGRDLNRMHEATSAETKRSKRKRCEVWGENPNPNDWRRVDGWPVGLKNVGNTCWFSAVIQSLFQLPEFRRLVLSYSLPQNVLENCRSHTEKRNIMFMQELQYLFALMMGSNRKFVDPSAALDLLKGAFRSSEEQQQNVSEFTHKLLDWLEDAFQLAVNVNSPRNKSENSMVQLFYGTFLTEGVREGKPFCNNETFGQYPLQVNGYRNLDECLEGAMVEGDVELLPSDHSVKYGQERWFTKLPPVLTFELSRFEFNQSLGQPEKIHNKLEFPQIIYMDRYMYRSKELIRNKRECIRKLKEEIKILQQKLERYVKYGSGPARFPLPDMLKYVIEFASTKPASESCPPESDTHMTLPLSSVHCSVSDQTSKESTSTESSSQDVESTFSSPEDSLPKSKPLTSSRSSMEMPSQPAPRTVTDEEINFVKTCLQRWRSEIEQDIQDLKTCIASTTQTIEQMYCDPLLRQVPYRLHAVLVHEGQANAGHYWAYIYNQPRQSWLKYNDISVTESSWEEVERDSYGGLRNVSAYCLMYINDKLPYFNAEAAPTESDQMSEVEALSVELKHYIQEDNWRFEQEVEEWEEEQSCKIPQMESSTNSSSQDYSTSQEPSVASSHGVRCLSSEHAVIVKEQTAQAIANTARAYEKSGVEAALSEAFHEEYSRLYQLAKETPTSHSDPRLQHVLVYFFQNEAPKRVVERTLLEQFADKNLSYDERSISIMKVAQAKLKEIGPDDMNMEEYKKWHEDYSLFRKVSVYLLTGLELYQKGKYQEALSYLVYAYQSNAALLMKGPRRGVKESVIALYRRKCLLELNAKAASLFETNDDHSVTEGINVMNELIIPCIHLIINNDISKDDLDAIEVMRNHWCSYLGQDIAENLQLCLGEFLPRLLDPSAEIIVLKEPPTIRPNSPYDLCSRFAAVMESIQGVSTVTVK

The target in the assay is p53-binding protein 1 (53BP1) (human (endogenous in RPE1)) (UniProt Q12888). The assay can be described thus: co-IP; anti-53BP1 antibody and Protein A magnetic beads, 1-2 mg lysate of RPE1 or USP28∆ RPE1 cells with transgenes, arrested in mitosis with nocodazole (100 ng/ml, 8 or 16 h), in some panels also released 6 h into G1; 20 mM Tris-HCl pH 7.5, 50 mM NaCl, 0.5% Triton X-100, 5 mM EGTA, 1 mM DTT, 2 mM MgCl2, 4 °C; blots for USP28 or FLAG and p53.

No constants are given. Whether binding was seen depends on the method and setting. Binding seen in cells or lysates may run through a third protein. Some binding calls cover weakened binding; strength is not graded here.

On to “USP28^hIF2 (human isoform 2) wildtype transgene (from UniProt Q96RU2-2 1-1045)”, for which the binding entry was “binds”.
Regarding “USP28^hIF2 C171A (from UniProt Q96RU2-2 1-1045)”, the binding result is given as “binds”.
Next, “USP28^hIF2 C-terminal region alone (aa651–1045) (from UniProt Q96RU2-2 651-1045) (domain or fragment)”: “no binding”.
As for “USP28^hIF2 D255N P287S (from UniProt Q96RU2-2 1-1045)”, the binding result is reported as “binds”.
As to “USP28^hIF2 G903R (from UniProt Q96RU2-2 1-1045)”, the binding entry is “no binding”.
“USP28^hIF2 N-terminal region (aa1–650) (from UniProt Q96RU2-2 1-650) (domain or fragment)”: the binding result is listed as “no binding”.
On to “USP28^hIF2 P953L (from UniProt Q96RU2-2 1-1045)”, for which the binding entry is on record as “no binding”.
As to “USP28^hIF2 R141C (from UniProt Q96RU2-2 1-1045)”, the binding result is “binds”.
Take “USP28^hIF2 R732C (from UniProt Q96RU2-2 1-1045)”: the binding result is recorded as “no binding”.
Regarding “USP28^hIF2 R1018Q (from UniProt Q96RU2-2 1-1045)”, the binding entry was “no binding”.
Regarding “USP28^hIF2 V541E L545E (dimerization mutant) (from UniProt Q96RU2-2 1-1045)”, the binding result was “no binding”.
For “USP28^hIF2 Δ13 (C-terminal truncation of the last 13 amino acids) (from UniProt Q96RU2-2 1-1032) (domain or fragment)”, the binding result is reported as “no binding”.
Next, “USP28^hIF2 ∆460–520 (loop deletion) (from UniProt Q96RU2-2 1-1045)”: “binds”.
